Several values for one entry are separate records, joined by “and”; a condition that tells them apart may be missing. Identical values can stand only once. In all, about 100,000 compounds went through this assay and about 250 (0.25%) were called active. This list was built around the results that the source calls inconclusive (neither active nor inactive); the mix of calls is not that of the screen. Calls come from the whole dose curve; as a rule, active = well fitted inhibition curve with a large enough effect; inconclusive = small, poorly fitted or top-dose-only effect; inactive = flat fitted curve, though single readings scatter. Potencies beside an inconclusive call are fits to weak or partial responses and may not hold up.
These compounds were tested against Alanine aminotransferase 2 (Homo sapiens) (UniProt Q8TD30) (assay: Primary qHTS assay for inhibitors of Glutamate pyruvate transaminase 2 (GPT2)). Conditions: Recombinant GPT2, coupled pyruvate oxidase/HRP Amplex Red fluorescence; activity change, negative = inhibition: at 57.7 µM (top of the series) unless noted; series mostly up to 57.7 µM.
UniProt Q8TD30, sequence (Q8TD30 whole entry, looked up): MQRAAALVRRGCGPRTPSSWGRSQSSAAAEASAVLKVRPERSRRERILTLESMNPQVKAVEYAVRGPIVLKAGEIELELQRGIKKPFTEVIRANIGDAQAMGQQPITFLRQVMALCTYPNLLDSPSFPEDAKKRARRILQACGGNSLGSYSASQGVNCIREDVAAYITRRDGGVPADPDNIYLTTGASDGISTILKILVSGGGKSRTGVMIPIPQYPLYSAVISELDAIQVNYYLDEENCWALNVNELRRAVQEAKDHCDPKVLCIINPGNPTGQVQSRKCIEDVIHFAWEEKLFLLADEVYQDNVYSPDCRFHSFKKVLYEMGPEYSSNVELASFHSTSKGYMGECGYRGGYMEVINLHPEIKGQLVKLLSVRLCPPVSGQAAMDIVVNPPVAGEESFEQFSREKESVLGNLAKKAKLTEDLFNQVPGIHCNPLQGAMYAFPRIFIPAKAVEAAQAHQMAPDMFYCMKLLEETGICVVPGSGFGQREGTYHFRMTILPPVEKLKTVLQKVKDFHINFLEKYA
Outline: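 Fluorescence read-out: pyruvate from GPT2 turnover coupled to pyruvate oxidase, HRP and Amplex Red (0.2mM ThPP, 0.2U/mL PO and HRP, 50uM Amplex final). Substrates 250uM a-KG, 2mM L-alanine; enzyme 10ng/uL; 30 min RT.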
`Cc1nc2c(c(-c3ccc(O)cc3)n1)CN(Cc1ccc(OC(F)(F)F)cc1)CCC2` was tested, and the “activity change, negative = inhibition” value was inactive: -13.5%. With `COc1cc(Cl)cc(CN2CCC(O)(c3ccccc3)CC2)c1OC` the “activity change, negative = inhibition” value was inactive: -8.03%. `Cc1noc(C)c1[S+](=O)([O-])N1CCCC1C(=O)N1CCC(N2CCOCC2=O)CC1` (centres undefined) was tested, and the “activity change, negative = inhibition” value was inactive: 2.37%. `CC(Cn1cccn1)Nc1ccc(-c2nc(COc3ccccc3)no2)cn1` (centres undefined) was tested, and the Potency was inconclusive: 39.8 µM [inhibitor, single point]. In the case of `Cc1ccc2nc3n(c2c1)[C@@H](CNC1CCN(C)CC1)COC3`, the Potency is reported as inconclusive: 35.5 µM [inhibitor, single point]. With `Cn1cccc1CN1C[C@@H](COc2ccncc2)[C@H](c2ccccn2)C1` the Potency was inconclusive: 7.08 µM [inhibitor, partial curve, poor fit]. In the case of `COc1ccc(CN2Cc3[nH]cnc3C[C@H]2C(=O)N(C)Cc2ccccc2)c2ccccc12`, the Potency is reported as inconclusive: 39.8 µM [inhibitor, single point]. In the case of `N#Cc1cccc(C(=O)NC2CCN(c3cc(-c4ccc(Cl)cc4)[nH]n3)C2)c1` (centres undefined), the Potency is reported as inconclusive: 25.1 µM [inhibitor, single point]. For `COc1ccccc1-c1cccc(CN2CCCC(C(=O)N3CCCC3)C2)c1` (centres undefined), the “activity change, negative = inhibition” value was inactive: -0.456%. `CN1CCC2(CCC1=O)CN(CCCCOc1ccccc1)CCN2C` (centres undefined) was tested, and the outcome was “inactive [at 11.5 µM]”. In the case of `Cc1cccc(NC(=O)N2CCC(c3cc(-c4cccc(C)c4)n[nH]3)CC2)c1`, the Potency is reported as inconclusive: 39.8 µM [inhibitor, single point]. With `COc1ccc(CC(=O)N(C)C2CCc3nnc(C)n3CC2)cc1Cl` (centres undefined) the Potency was inconclusive: 14.1 µM [inhibitor, partial curve, poor fit]. `COc1ccc(C(=O)N[C@@H]2CCC[C@@H]2C(=O)NCCc2ccccn2)cn1` was tested, and the Potency was inconclusive: 35.5 µM [inhibitor, single point]. With `COc1ccc(CCNC(=O)c2c(C)noc2-c2ccc(C(C)(C)C)cc2)cc1OC` the Potency was inconclusive: 6.31 µM [inhibitor, full curve]. For `Cc1ccc(N(CC2=NCCN2)c2cccc(O)c2)cc1`, the Potency was inconclusive: 15.8 µM [inhibitor, partial curve, poor fit]. For `O=C(c1cccc(C(F)(F)F)c1)N1CCOCC2(CN(Cc3ccccc3)C2)C1`, the “activity change, negative = inhibition” value was inactive: 1.06% [at 88.5 µM]. `COc1cccc(C(=O)N2[C@@H]3CC[C@H]2CC(NC(=O)c2cnc(C)cn2)C3)c1C` (some centres undefined) was tested, and the Potency was inconclusive: 7.08 µM [inhibitor, partial curve, poor fit]. In the case of `CC(NC(=O)c1ccc(Cn2ccn3nc4c(c3c2=O)CCCC4)cc1)c1ccccc1` (centres undefined), the “outcome” value is reported as “inactive”. In the case of `COCCn1cc2c3c(cccc31)CN(C(=O)CCCc1ccccc1)CC2`, the “outcome” value is reported as “inactive”. `COCC(=O)NC[C@H]1COCc2nc3cc(C(=O)OC)ccc3n21` was tested, and the Potency was inconclusive: 28.2 µM [inhibitor, partial curve]. `CN(C)CCCN(C)c1nccc(C2(c3ccccc3Cl)CCNCC2)n1` was tested, and the “activity change, negative = inhibition” value was inactive: 0.436%. In the case of `CC1=C[C@@H](CNS(=O)(=O)c2ccccc2)[C@H](C(C)C)C[C@H]1Cc1nc2ccncc2[nH]1`, the “activity change, negative = inhibition” value is reported as inactive: 1.65% [at 88.5 µM]. In the case of `CN1[C@@H](CCC(=O)Nc2ccccc2)CNC(=O)[C@@H]2[C@H]1CCN2Cc1ncc[nH]1`, the Potency is reported as inconclusive: 44.7 µM [inhibitor, single point]. For `O=C(Cc1ccc(Cl)cc1)N1CCCN(c2cc(-c3ccccc3)[nH]n2)CC1`, the Potency was inconclusive: 31.6 µM [inhibitor, single point]. `COc1ccc(-c2cc(N3CCC(NC(=O)c4ccc(C)cc4)C3)n[nH]2)cc1` (centres undefined) was tested, and the Potency was inconclusive: 14.1 µM [inhibitor, partial curve]. With `CC(=O)Nc1ccc(C(=O)NC2CCN(c3cc(-c4ccccc4)[nH]n3)C2)cc1` (centres undefined) the Potency was inconclusive: 17.8 µM [inhibitor, partial curve, poor fit]. With `O=C(NCc1ccc(C(F)(F)F)cc1)C1CCCN1C(=O)c1cccc(-c2ccccn2)c1` (centres undefined) the Potency was inconclusive: 5.01 µM [inhibitor, single point]. With `COCCOC1CCOC2(CCN(S(=O)(=O)c3cccc(OC)c3)CC2)C1` (centres undefined) the “outcome” value was “inactive”. In the case of `Cn1nc(C2CC2)n(C2CCN(Cc3cn[nH]c3-c3ccccc3)CC2)c1=O`, the Potency is reported as inconclusive: 3.55 µM [inhibitor, partial curve, poor fit]. With `COc1ccc(Nc2n[nH]c(C(O)c3cccc(C(F)(F)F)c3)n2)cc1OC` (centres undefined) the Potency was inconclusive: 56.2 µM [inhibitor, single point]. In the case of `COc1ccccc1Nc1ccnc(N2CCCC(C(=O)NC3CC3)C2)n1` (centres undefined), the “outcome” value is reported as “inactive”. In the case of `COC1C(=O)N(CC2CC2)C12CCN(C(=O)c1cnccc1C)CC2` (centres undefined), the “outcome” value is reported as “inactive”. For `C=CCNC(=O)C1CC(c2ccc(F)cc2)=NO1` (centres undefined), the Potency was inconclusive: 8.91 µM [inhibitor, single point]. With `O=C1CC2(CCN(S(=O)(=O)c3ccccc3)CC2)Oc2ccccc21` the Potency was inconclusive: 28.2 µM [inhibitor, single point]. With `O=C(NCC(F)(F)F)c1nc2sccn2c1-c1ccc(F)cc1` the “activity change, negative = inhibition” value was inactive: -4.26%. For `COc1c(C)c(C(=O)c2ccc(N)c(C(=O)O)c2)n2ccccc12`, the Potency was inconclusive: 10 µM [inhibitor, partial curve, poor fit] and inconclusive: 8.91 µM [inhibitor, partial curve, poor fit]. For `COc1ccccc1C(=O)N1CCCn2nc(C)c(-c3ccccc3Oc3ccccc3)c21`, the “outcome” value was “inactive [at 88.5 µM]”. `CCC(C)NC(=O)CCN(CC)C(=O)c1cc(C)oc1C` (centres undefined) was tested, and the “activity change, negative = inhibition” value was inactive: 0.318%. For `CCC(=O)N1CCC(n2c(C)cnc2-c2ccncc2)CC1`, the Potency was inconclusive: 39.8 µM [inhibitor, single point]. For `Cc1ccsc1CN1CCc2c(sc3ncnc(N(C)C)c23)C1`, the Potency was inconclusive: 25.1 µM [inhibitor, single point]. With `Cc1c(CC(=O)N2CCC(O)CC2)c2c(n1Cc1ccccc1F)CCCC2=O` the Potency was inconclusive: 39.8 µM [inhibitor, single point]. In the case of `CCC(=O)Nc1ccc(C2(C(=O)N3CCCC(C)C3)CCCCC2)cc1` (centres undefined), the Potency is reported as inconclusive: 35.5 µM [inhibitor, single point]. For `CCCN(C)C(=O)c1csc(N2CCN(c3cccc(Cl)c3)CC2)n1`, the Potency was inconclusive: 35.5 µM [inhibitor, single point]. `Cc1ccc(N2CCC3(CCCN3Cc3ccc(C4CCCO4)s3)CC2)nn1` (centres undefined) was tested, and the Potency was inconclusive: 28.2 µM [inhibitor, single point]. In the case of `Cc1cc2ncc(C(=O)NCC(C)(C)NCC(=O)N3CCC[C@H]3C#N)cn2n1`, the Potency is reported as inconclusive: 7.08 µM [inhibitor, full curve, poor fit]. For `CO[C@H]1C[C@@H]2CC[C@@H](C)[C@@](O)(O2)C(=O)C(=O)N2CCCC[C@@H]2C(=O)O[C@H]([C@@H](C)C[C@@H]2CC[C@H](O)[C@H](OC)C2)CC(=O)[C@H](C)C=C(C)[C@@H](O)[C@@H](OC)C(=O)[C@H](C)C[C@H](C)C=CC=CC=C1C`, the Potency was inconclusive: 24.3 µM [inhibitor, partial curve]. With `CCNC(=O)c1cccnc1OC1CCN(C(=O)c2ccccc2OC)C1` (centres undefined) the “outcome” value was “inactive”. For `CCOc1ccccc1CN1CCCCCCNC(=O)[C@@H]2CCC[C@@H]21`, the Potency was inconclusive: 39.8 µM [inhibitor, single point]. With `O=C(NC1CCN(c2cc(-c3ccc(Cl)cc3)[nH]n2)C1)c1ccc(F)cc1F` (centres undefined) the Potency was inconclusive: 28.2 µM [inhibitor, single point]. `Cn1c(Cn2ccnc2)nnc1C1CCCN(C(=O)Cc2ccccc2F)C1` (centres undefined) was tested, and the “activity change, negative = inhibition” value was inactive: -8.92%. `O=C(Cc1ccsc1)N1CCCN(c2cc(-c3ccc(Cl)cc3)[nH]n2)CC1` was tested, and the Potency was inconclusive: 25.1 µM [inhibitor, single point]. In the case of `Cc1ccc(C(=O)N2CCC3(CC2)CC(c2cccc(C(F)(F)F)c2)=NO3)cc1`, the Potency is reported as inconclusive: 39.8 µM [inhibitor, single point]. `COc1ccccc1CN1CCCn2nc(C)c(-c3ccccc3[S+](C)(=O)[O-])c21` was tested, and the Potency was inconclusive: 1 µM [inhibitor, partial curve, poor fit]. For `Fc1ccccc1CN1CCC[C@H]1c1nc(-c2ccnc(N3CCOCC3)c2)no1`, the Potency was inconclusive: 56.2 µM [inhibitor, single point]. `COc1cc(N2CCOCC2)ccc1Nc1ncc(Cl)c(Nc2ccccc2NS(C)(=O)=O)n1` was tested, and the Potency was active: 5.01 µM. `CCN(C(=O)Cn1cccc1-c1nc(-c2ccc(OC)c(F)c2)no1)c1ccccc1` was tested, and the “activity change, negative = inhibition” value was inactive: -2.63%. In the case of `O=C([C@@H]1C[C@H](Oc2ccccc2)CN1C(=O)CC1CCCC1)N1CCCC1`, the Potency is reported as inconclusive: 5.62 µM [inhibitor, single point]. In the case of `COc1ccc(C(=O)N2CCC3(CC2)NC(=O)N(c2cccc(F)c2)N3)cc1F`, the Potency is reported as inconclusive: 31.6 µM [inhibitor, single point]. For `CCC(=O)N1CCc2c(C(=O)NCc3ccccc3F)cccc21`, the “outcome” value was “inactive”. With `Cc1nc2c(c(=O)[nH]1)CCN(C(=O)C1(C)CCc3c(C)c(O)c(C)c(C)c3O1)C2` (centres undefined) the Potency was inconclusive: 39.8 µM [inhibitor, single point]. In the case of `COCCN1Cc2nc(Nc3ccc(F)c(Cl)c3)ccc2OCC1=O`, the “activity change, negative = inhibition” value is reported as inactive: -8.19% [at 88.5 µM]. With `O=C(c1cnccn1)N1CCC2(CC1)CCC(O)(CN1CCc3ccccc31)CC2` the Potency was inconclusive: 1.26 µM [inhibitor, full curve, poor fit]. `COc1ccc(CNC[C@H]2COCc3nc4cc(C(F)(F)F)ccc4n32)cn1` was tested, and the “activity change, negative = inhibition” value was inactive: -4.24% [at 88.5 µM]. `CCn1ccnc1CN(C)Cc1cn(-c2ccccc2C)nc1-c1ccc(OC)c(F)c1` was tested, and the Potency was inconclusive: 28.2 µM [inhibitor, single point].

Source: PubChem BioAssay AID1671188 (National Center for Advancing Translational Sciences (NCATS), 2021)
% is set by controls: 0 for no effect and ±100 for the full control effect; potency is the fitted concentration of half-maximal effect; tags give direction and shape of the fitted curve.
Note: nearly all actives have a fitted effect of over 60% in size.
